Test results published in PMC3926831.
These are yes or no findings as the source states them, for the method shown. In cells and extracts the contact can be indirect. Some binding calls cover weakened binding; strength is not graded here. For part of these data: Tags and fused reporters may be left off the sequences shown.

By UniProt entry, the sequences of proteins in these tests, tags left out. Where a name states a change or a piece, a line headed by the entry shows the natural chain unless it says otherwise. Chains listed by the source or under a name are the forms on record and can include a tag or linker.
UniProt P49674: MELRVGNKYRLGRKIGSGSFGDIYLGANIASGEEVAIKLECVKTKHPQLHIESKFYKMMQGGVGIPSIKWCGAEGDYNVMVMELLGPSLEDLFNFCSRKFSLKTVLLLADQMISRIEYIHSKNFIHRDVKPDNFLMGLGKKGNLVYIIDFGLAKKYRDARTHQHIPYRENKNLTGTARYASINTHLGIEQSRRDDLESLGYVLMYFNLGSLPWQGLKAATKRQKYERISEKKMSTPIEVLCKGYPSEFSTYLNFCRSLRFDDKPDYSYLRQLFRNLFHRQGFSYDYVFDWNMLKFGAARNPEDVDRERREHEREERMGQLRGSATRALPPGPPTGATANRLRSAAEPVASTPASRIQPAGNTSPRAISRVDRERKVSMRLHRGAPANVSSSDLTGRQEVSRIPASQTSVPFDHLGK
UniProt P63208: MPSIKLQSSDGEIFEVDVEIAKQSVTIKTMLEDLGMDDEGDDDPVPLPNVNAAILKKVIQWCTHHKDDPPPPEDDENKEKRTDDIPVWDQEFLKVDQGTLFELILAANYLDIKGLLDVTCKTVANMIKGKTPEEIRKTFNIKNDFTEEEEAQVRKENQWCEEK
β-TRCP1, endogenous (Q9Y297-2, form named): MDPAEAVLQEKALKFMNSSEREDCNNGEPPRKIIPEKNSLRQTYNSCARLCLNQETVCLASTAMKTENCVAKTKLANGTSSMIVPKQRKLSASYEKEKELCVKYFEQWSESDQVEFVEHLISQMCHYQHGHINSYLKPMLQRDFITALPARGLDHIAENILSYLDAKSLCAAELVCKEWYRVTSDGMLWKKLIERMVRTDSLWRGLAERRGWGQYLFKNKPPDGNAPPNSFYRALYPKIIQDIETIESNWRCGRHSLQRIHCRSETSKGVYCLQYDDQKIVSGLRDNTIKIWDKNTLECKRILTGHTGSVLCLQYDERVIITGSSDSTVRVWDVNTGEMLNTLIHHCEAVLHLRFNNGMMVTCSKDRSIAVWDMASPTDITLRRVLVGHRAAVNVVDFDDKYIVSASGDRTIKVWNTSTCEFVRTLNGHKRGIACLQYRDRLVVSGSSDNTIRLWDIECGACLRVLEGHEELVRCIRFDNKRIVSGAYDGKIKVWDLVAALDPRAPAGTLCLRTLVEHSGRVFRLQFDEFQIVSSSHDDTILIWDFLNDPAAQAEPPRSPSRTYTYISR

Tests used:
GST-MTSS1 = biological target: T1, GST-MTSS1 (UniProt O43312); test: co-IP; 293T cells co-transfected with both tagged partners; 10 μM MG132 overnight before harvest; EBC lysis buffer; five washes with NETN buffer; for Myc-MTSS1 with Flag-β-TRCP1 lysates were also pre-treated with λ-phosphatase before the IP
T1 sequence: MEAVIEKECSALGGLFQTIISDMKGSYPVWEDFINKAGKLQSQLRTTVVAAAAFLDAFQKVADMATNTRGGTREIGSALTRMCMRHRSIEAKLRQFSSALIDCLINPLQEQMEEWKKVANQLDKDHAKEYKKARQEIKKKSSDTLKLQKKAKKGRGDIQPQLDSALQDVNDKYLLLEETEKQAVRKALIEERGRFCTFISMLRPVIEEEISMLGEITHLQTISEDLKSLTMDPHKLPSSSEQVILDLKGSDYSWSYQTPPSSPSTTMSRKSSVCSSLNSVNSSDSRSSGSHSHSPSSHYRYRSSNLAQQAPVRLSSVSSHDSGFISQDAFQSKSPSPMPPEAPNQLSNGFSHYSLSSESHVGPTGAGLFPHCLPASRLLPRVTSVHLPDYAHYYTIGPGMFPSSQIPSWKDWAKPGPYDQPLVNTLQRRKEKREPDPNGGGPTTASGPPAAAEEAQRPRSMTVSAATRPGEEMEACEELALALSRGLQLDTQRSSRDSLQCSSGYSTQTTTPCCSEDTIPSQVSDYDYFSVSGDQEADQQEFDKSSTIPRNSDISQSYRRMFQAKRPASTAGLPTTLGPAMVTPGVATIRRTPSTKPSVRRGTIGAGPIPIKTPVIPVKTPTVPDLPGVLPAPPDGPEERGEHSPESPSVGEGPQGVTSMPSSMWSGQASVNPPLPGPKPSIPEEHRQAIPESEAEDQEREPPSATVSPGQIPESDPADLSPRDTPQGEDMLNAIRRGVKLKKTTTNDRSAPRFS

[1] = biological target: T2, Metastasis suppressor 1 (MTSS1), endogenous (human (endogenous in 293T)) (UniProt O43312); test: co-IP; 293T cell extracts immunoprecipitated with antibody against MTSS1 or control IgG; both partners endogenous; immunoblot
T2 sequence: T1 sequence

Row | Substance | binding (GST-MTSS1) | binding [1]
1 | Myc-CKIε (from UniProt P49674 1-416) (enzyme) | no binding | 
2 | Myc-Skp1 (from UniProt P63208 1-163) | binds | 
3 | β-TRCP1, endogenous (from UniProt Q9Y297-2 1-569) |  | binds
